These results are taken from ChEMBL document CHEMBL3576814, “N (1)-Fluoroalkyltryptophan Analogues: Synthesis and in vitro Study as Potential Substrates for Indoleamine 2,3-Dioxygenase” (ACS Med Chem Lett, 2015).

The test system of series [1] is N[C@@H](Cc1c[nH]c2ccccc12)C(=O)O. Conditions: Homo sapiens.
In series [2] the test system is N[C@@H](Cc1c[nH]c2ccc(O)cc12)C(=O)O. Conditions: Homo sapiens.
Series [3] relates to NC(Cc1cn(CCF)c2ccccc12)C(=O)O. Conditions: Homo sapiens.
Series [4] has as its system N[C@@H](Cc1c[nH]c2ccccc12)C(=O)O. The following applies: Homo sapiens. The source holds these as a separate data set.
Series [5] relates to N[C@@H](Cc1c[nH]c2ccc(O)cc12)C(=O)O. The following applies: Homo sapiens. The source holds these as a separate data set.
The test system of series [6] is NC(Cc1cn(CCF)c2ccccc12)C(=O)O. Kind of series: Activity of recombinant human IDO assessed as formation of N-formyl-L-kynurenine at 37 degC at pH 6.5 after 5 to 15 mins by HPLC with fluorescence detection method. The method in brief:
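Recombinant human IDO at 37 °C, pH 6.5. Perchloric acid is added after incubation to hydrolyse N-formyl-kynurenine derivatives to kynurenines. Substrate is separated by HPLC/UPLC and quantified by fluorescence detection (method B, [S] ≥ 2 μM). kcat/Km is derived from substrate concentration versus incubation time, and Km from initial rates.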

As for “Indoleamine 2,3-dioxygenase 1 (Homo sapiens) (no sequence given)”, the Km – broadly, the substrate concentration at which the rate is half of its maximum – amounted to 15 µM in series [1], 17 µM in series [2] and 70 µM in series [6]. For the same substance, the kcat/Km in series [3] came out at 5.8 ×10² /M/s; in series [4] it was 2100 ×10² /M/s; in series [5] it was 21 ×10² /M/s.
